PubChem BioAssay AID886 (National Center for Advancing Translational Sciences (NCATS), 2007)
The campaign covered roughly 73,000 compounds. About 2,500 (3.4%) were called active. This list was built around the results that the source calls inconclusive (neither active nor inactive); the mix of calls is not that of the screen. Calls come from the whole dose curve; as a rule, active = well fitted inhibition curve with a large enough effect; inconclusive = small, poorly fitted or top-dose-only effect; inactive = no such curve, though single readings can be large or run the other way. Potencies of inconclusive entries are doubtful fits and often do not repeat.

Molecular target: 3-hydroxyacyl-CoA dehydrogenase type-2 (Homo sapiens) (UniProt Q99714)
Test: qHTS Assay for Inhibitors of HADH2 (Hydroxyacyl-Coenzyme A Dehydrogenase, Type II); note: nearly all actives have a fitted effect of over 60% in size
Conditions: recombinant HADH2, NADH fluorescence, beta-hydroxybutyryl-CoA; activity change, negative = inhibition: at 57.1 µM (top of the series)
Summary of the method: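 E. coli-expressed His-tagged HADH2 tested at 20 nM in alkaline Tris buffer (pH 9.0); oxidation of 90 uM beta-hydroxybutyryl-CoA with 1 mM NAD+ tracked fluorimetrically for 4 min.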
% is set by controls: 0 for no effect and ±100 for the full control effect; potency is the fitted concentration of half-maximal effect; tags give direction and shape of the fitted curve.

Chain of UniProt Q99714 (Q99714 whole entry, looked up): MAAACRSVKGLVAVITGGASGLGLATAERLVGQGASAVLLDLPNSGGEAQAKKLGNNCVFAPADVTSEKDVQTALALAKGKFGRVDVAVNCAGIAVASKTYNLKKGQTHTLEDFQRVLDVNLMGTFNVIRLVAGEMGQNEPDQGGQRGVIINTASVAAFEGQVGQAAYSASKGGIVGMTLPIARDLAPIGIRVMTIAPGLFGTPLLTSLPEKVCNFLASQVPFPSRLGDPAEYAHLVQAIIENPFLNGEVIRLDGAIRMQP
Chain of UniProt Q99714 (Q99714 whole entry, looked up): as above

Structure (SMILES) | activity change, negative = inhibition | Potency
Cc1cc(C)n(-c2ccc(C(=O)NC3=NCCS3)cc2)n1 | inactive: -9.6% | 
COC(=O)C1C(=O)C2=C(CC1C)NC(=O)CC2c1cccc(C)c1 (configuration not stated) |  | inconclusive: 25.1 µM [inhibitor, single point]
CC(C)CNc1nc2ncnc(N)c2[nH]1 | inactive: 11.2% [at 11.4 µM] | 
CN(C)C(=O)c1ccc(-c2nccc(-n3ccnc3)n2)cc1 |  | inconclusive: 31.6 µM [inhibitor, single point]
C=CCNc1nc(N2CCCC2)nc2ccccc12 |  | active: 25.1 µM
Cc1noc(C)c1COC(=O)Cc1ccc(Cl)c(Cl)c1 | inactive: -0.191% | 
CCc1ccc(C(C)NC(=O)c2cc(C)oc2C)cc1 (configuration not stated) |  | inconclusive: 39.8 µM [inhibitor, single point]
CCCCC(=O)Nc1cc(N(C)C)nc2ccccc12 |  | inconclusive: 39.8 µM [inhibitor, single point]
Cc1ccc(N=Cc2ccc[nH]2)c(O)c1 |  | inconclusive: 31.6 µM [inhibitor, single point]
N#C[C@@H](Cc1ccc(O)c(O)c1)C(=O)N1CCc2ccccc21 |  | inconclusive: 15.8 µM [inhibitor, partial curve]
Cc1cccc(-c2nsc(SCC(=O)Nc3cc(C)on3)n2)c1 |  | inconclusive: 25.1 µM [inhibitor, single point]
N#Cc1ccc(CN2CCC3(CC2)CCN(C(=O)c2ccco2)CC3)cc1 | inactive: -11.5% | 
O=C(NCCc1ccccc1)c1cccnc1N1CCCCCC1 |  | inconclusive: 5.01 µM [inhibitor, single point]
O=C(O)c1sccc1S(=O)(=O)Nc1ccccc1N1CCCCC1 |  | inconclusive: 25.1 µM [inhibitor, single point]
CCOC(=O)CSc1nc2c(c(=O)n(Cc3ccccc3Cl)c(=O)n2C)n1C |  | inconclusive: 39.8 µM [inhibitor, single point]
S=C(c1ccc(-c2ccccc2Cl)o1)N1CCOCC1 |  | active: 1.58 µM
O=C(O)C1(c2cccc(Cl)c2)CCC1 | inactive: -2.6% | 
COc1ccc2[nH]c(=O)c(CN(Cc3cccs3)S(=O)(=O)c3cccc4nsnc34)cc2c1 | inactive: 11.2% | 
CCOC(=O)Nc1ccc2c(c1)Nc1ccccc1S2 |  | inconclusive: 10 µM [inhibitor, partial curve]

Structure (SMILES) | activity change, negative = inhibition | Potency
CCOC(=O)C1CCCN(c2cc(C)nc3cc(-c4ccc(F)cc4)nn23)C1 (configuration not stated) |  | inconclusive: 39.8 µM [inhibitor, single point]
c1ccc2c[n+](Cc3ccnc4ccccc34)ccc2c1 | inactive: -11.2% [at 11.4 µM] | 
COC(=O)[C@@]1(Cc2ccc(F)cc2)[C@H]2c3cc(C(=O)N(C)C)n(Cc4ccc(C)c(F)c4F)c3C[C@H]2CN1C(=O)c1ccccc1 | inactive: 12.6% | 
O=C(c1cc(-c2ccco2)on1)N1CCCc2ccccc21 |  | inconclusive: 20 µM [inhibitor, partial curve]
Cc1cccc(NC(=O)c2ccccc2Br)n1 |  | inconclusive: 31.6 µM [inhibitor, single point]
Cc1ccc(-c2nc(CS(=O)CC(=O)NCCCN3CC(C)CC(C)C3)c(C)o2)cc1 (configuration not stated) | inactive: 6.01% | 
Cc1nc(SCC(=O)Nc2cc(C)on2)c2c(=O)n(C)c(=O)n(C)c2n1 |  | inconclusive: 39.8 µM [inhibitor, single point]
CC1(C)CC(=O)CC(C)(C)N1OC(=O)c1ccccn1 | inactive: 0.41% | 
CN1CCc2c(sc3c2C(=O)NC(c2cn(Cc4ccccc4)c4ccccc24)N3)C1 (configuration not stated) |  | inconclusive: 31.6 µM [inhibitor, single point]
COc1cccc(-c2cc(C(F)(F)F)nc(N3CCCCC3)n2)c1 |  | inconclusive: 20 µM [inhibitor, partial curve]
NC(=O)c1ccccc1NC(=O)CS(=O)(=O)Cc1ccccc1 | inactive: -3.35% | 
O=C(O)c1nnsc1-c1ccc(-c2snnc2C(=O)O)cc1 |  | inconclusive: 2 µM [inhibitor, partial curve]
CCN1C(=O)C(C)S/C1=N\S(=O)(=O)c1ccc(Cl)s1 (configuration not stated) |  | inconclusive: 15.8 µM [inhibitor, partial curve]
CCOC(=O)c1cn(CC(=O)Nc2ccc3c(c2)OCCO3)nn1 | inactive: -3.82% | 
Nc1cc(-c2ccncc2)c[nH]c1=O |  | inconclusive: 1.26 µM [inhibitor, full curve]
COc1cccc(-c2csc(N3CCN(S(=O)(=O)c4ccc(F)cc4)CC3)n2)c1 |  | inconclusive: 12.6 µM [inhibitor, partial curve, poor fit]
CCc1nn(C(C)C(=O)N2CCc3ccccc3C2)c(=O)c2cc3occc3n12 (configuration not stated) | inactive: -0.587% | 
CCOC(=O)c1c(NC(=O)c2ccco2)sc2c1CCCCC2 |  | inconclusive: 31.6 µM [inhibitor, single point]
